# Results taken from PMC4336329 (PLoS ONE, 2015).
# Screen size: about 310,000 compounds; about 14,000 (4.5%) showed an effect of 50% or more. Effects have a minus sign here. The list shows a part of the results.
# Biological target: human ether-à-go-go-related gene (hERG) potassium channel (human, UniProt Q12809)
# Test: primary screen, population patch clamp on CHO cells stably expressing hERG
# 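Also: peak tail current of the secondary pulse compared with the same well before compound.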
# Chain of human ether-à-go-go-related gene (hERG) potassium channel (Q12809 whole entry, looked up): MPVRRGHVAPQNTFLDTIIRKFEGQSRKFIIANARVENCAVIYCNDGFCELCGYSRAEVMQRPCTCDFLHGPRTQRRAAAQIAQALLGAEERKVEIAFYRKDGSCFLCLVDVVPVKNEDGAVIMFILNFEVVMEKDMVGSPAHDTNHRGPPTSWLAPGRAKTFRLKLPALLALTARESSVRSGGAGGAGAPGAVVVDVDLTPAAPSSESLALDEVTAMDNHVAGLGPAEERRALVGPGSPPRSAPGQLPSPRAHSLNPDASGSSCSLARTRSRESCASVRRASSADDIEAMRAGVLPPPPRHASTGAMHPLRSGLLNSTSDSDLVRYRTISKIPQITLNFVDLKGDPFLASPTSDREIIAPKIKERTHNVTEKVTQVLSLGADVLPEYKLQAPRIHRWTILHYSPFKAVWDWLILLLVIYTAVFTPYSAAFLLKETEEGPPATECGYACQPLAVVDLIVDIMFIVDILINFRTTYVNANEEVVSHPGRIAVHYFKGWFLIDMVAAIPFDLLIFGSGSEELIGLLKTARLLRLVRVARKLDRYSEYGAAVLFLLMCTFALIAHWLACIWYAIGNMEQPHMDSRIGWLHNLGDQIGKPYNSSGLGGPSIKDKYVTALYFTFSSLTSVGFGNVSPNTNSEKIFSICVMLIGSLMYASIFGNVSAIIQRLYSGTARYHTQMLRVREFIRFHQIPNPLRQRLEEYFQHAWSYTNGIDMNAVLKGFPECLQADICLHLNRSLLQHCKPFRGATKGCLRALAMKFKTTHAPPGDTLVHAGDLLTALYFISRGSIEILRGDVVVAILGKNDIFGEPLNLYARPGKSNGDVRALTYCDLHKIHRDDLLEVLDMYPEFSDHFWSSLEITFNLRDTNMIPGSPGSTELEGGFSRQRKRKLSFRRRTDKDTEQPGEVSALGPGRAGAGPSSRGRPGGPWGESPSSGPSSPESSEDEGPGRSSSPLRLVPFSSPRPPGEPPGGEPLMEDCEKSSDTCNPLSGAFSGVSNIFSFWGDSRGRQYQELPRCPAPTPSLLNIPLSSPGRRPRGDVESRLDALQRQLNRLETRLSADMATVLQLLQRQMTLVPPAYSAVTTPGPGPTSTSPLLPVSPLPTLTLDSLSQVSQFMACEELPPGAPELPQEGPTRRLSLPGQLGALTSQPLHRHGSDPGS
row,SMILES,"hERG current change (%, negative = inhibition) at 10uM [%]"
1,COC(=O)c1cc(S(=O)(=O)NCC2CCN(Cc3cccc(F)c3)CC2)cn1C,-18.5
2,O=C(COc1ccc2ccccc2c1)NCC1CCCO1 (stereo not shown),0.778
3,CN1CC2(C)CN(C(c3ccccc3)c3ccccc3)CC(C)(C1)C2O (stereo not shown),-39.3
4,CC1(C)C(c2ccccc2)=NC(c2cccnc2)N1O (stereo not shown),-7.09
5,Cc1ccc(Cl)cc1N1CCN(C(=O)CNC(=O)c2ccc(Br)o2)CC1,-55.9
6,N#Cc1ccc(C(=O)Nc2nc(-c3cccs3)c(C(=O)C(F)(F)F)s2)cc1,-44.2
7,Cc1ccc(Sc2nc3c(c(=O)[nH]c(=O)n3C)n2CCc2ccccc2)cc1,5.16
8,CC(=O)Nc1nc(-c2ccc(Cl)cc2)ns1,-0.655
9,Cc1ccc(Nc2ccccc2)cc1,5.68
10,CCN1CCN(Cc2ccc(NC(=O)c3cc(NC(=O)c4nccnc4N)cc(OC)c3)cc2C(F)(F)F)CC1,6.98
11,O=C(Nc1ccccc1Cl)N1CCN(c2ccc3nnc(-c4ccccc4)n3n2)CC1,-73.5
12,CCC1C(c2ccccc2)NC(c2ccccc2)CC1(O)c1ccc(F)cc1.Cl (stereo not shown),11.4
13,COC(=O)CSc1nnc(CNS(=O)(=O)c2ccc(Br)cc2)n1C,10.8
14,CC(C(=O)N1CCCC1)N1CCN(c2ccccc2O)CC1 (stereo not shown),27.6
15,O=[N+]([O-])c1ccccc1/C=C/C=N/n1c(-c2ccc(Cl)cc2)n[nH]c1=S,17.5
16,CC(C)NC(=O)NC(=O)CSc1nnc(-c2ccccc2F)n1N,4.37
17,O=C(CN1C(=O)C2C3C=CC(C3)C2C1=O)Nc1ccc(C(=O)O)cc1 (stereo not shown),16.2
18,O=C(Cn1ccc2ccccc2c1=O)Nc1ccc2c(c1)OCO2,4.31
19,COc1cc(OC)cc(C(=O)Nc2cccc(NC(=O)c3ccccc3)c2)c1,-27.3
20,CC(=O)Nc1cccc(C(=O)/C=C/c2ccco2)c1,7.75
21,O=C(c1ccc([N+](=O)[O-])cc1[N+](=O)[O-])n1cnc2ccccc21,-16.4
22,Cc1cccc(NC(=O)c2nc[nH]c2C(=O)N[C@@H](C)C(=O)OCc2ccccc2)c1,16
23,O=C(/C=C/c1ccc([N+](=O)[O-])s1)N1CCCCC1,-38.7
24,O=C(NC1CCCC1)C(c1ccncc1)N(CC1CCCO1)C(=O)Cn1nnc(-c2cccs2)n1 (stereo not shown),-13.9
25,Cc1cc(=O)oc2cc(OCC(=O)OC(C)C(=O)NC3CCCC3)ccc12 (stereo not shown),2.63
26,O=C(CCCCCN1C(=O)c2ccccc2C1=O)Nc1ccc(C(=O)O)cc1,18.1
27,CCN(CC)S(=O)(=O)c1cc(C(=O)OCC(=O)c2ccc3c(c2)NC(=O)CO3)ccc1Cl,-3.75
28,COc1ccccc1NC(=O)C[n+]1ccccc1.[Cl-],21.8

row,SMILES,"hERG current change (%, negative = inhibition) at 10uM [%]"
1,O=C(c1ccc([N+](=O)[O-])cc1[N+](=O)[O-])N1CCc2ccccc21,4.84
2,Cc1ccc(NC(=O)CN(C)CC(=O)Nc2cccc(F)c2)cc1S(=O)(=O)N1CCCCCC1.O=C(O)C(=O)O,-7.23
3,CC(=O)Nc1ccc(S(=O)(=O)NC(C)C(=O)NCCc2ccc(F)cc2)cc1 (stereo not shown),11.3
4,O=C(NCC1CCCO1)c1ccc(CS(=O)(=O)c2ccc(Cl)cc2)o1 (stereo not shown),3.76
5,CCO[C@H]1OC(C(=O)N2CCOCC2)=C[C@@H](c2coc3ccccc3c2=O)[C@@H]1CCCO,6.6
6,CSc1ncccc1C(=O)OCC(=O)NCCC1=CCCCC1,0.879
7,Cc1ccnc(NS(=O)(=O)c2ccc(NC(=O)c3ccc(S(=O)(=O)N(C)C)cc3)cc2)n1,15.9
8,COc1cccc(NC(=O)C2CCCN(c3ncnc4c3nc3n4CCCCC3)C2)c1 (stereo not shown),-67.4
9,Nn1c(SCc2nc3ccccc3[nH]2)nnc1-c1cccnc1,-6.77
10,C#CC(CCN1CCCCC1)(OC)c1ccccc1.Cl (stereo not shown),-28.6
11,COC(=O)c1cc(NC(=O)c2ccc(-c3ccccc3)cc2)ccc1Cl,-2.01
12,O=S(=O)(c1ccc2c(c1)oc1ccccc12)N1CCOCC1,-5.51
13,CN(C)c1nc(N)nc(CSc2nnnn2-c2ccc(F)cc2)n1,1.46
14,O=C(CSC(=S)N1CCCC1)N1CCN(S(=O)(=O)c2cccc(F)c2)CC1,-15.1
15,Cc1nnc(N(CCC#N)CCC#N)s1,12.3
16,Nc1nc(Cl)nc2ccc(Br)cc12,7.87
17,Cc1nc2oc3c(=O)[nH]cnc3c2c2c1COC(C)(C)C2,3.19
18,Cc1cc(NC(=O)CCC(=O)N(Cc2cccs2)C(C)(C)C(=O)NC2CCCCC2)no1,6.9
19,O=C(NNC1=NCCN1Cc1ccccc1)c1cccc(C(F)(F)F)c1,-11.9
20,FC(F)(F)c1cccc(-c2nnc(-c3ccccc3)c(N3CCOCC3)n2)c1,-19.7
21,Cc1ccc(S(=O)(=O)n2nc(C)c(Br)c2C)c(C)c1C,20.8
22,CCc1ccc(-c2csc3[n+]2CCN3C(C)=O)cc1.[Br-],-29.1
23,CC1CCC(NC(=O)COc2ccccc2C(N)=O)CC1 (stereo not shown),6.59
24,CCOC(=O)Cn1cnc2c(cnn2-c2ccc(OC)cc2)c1=O,17.1
25,O=C(NC1CCCC1)C(c1ccncc1)N(C(=O)c1ccco1)c1ccccc1 (stereo not shown),-5.61
26,CCOc1ccc(C2N(c3cc(Cl)ccc3OC)C(=O)C3CCCN32)cc1OC (stereo not shown),-0.709
27,C=CCn1c(CNC(=O)c2ccccc2F)nnc1SCC(=O)N1CCOCC1,-2.18
